From the supplement of paper PMC3724861
The other results are listed elsewhere or left out.

What follows are sequences tested on T1, Caupolican (Caup) homeodomain DNA-binding domain (assay: PBM E-score (8-mer, recovered from the published 9-mer minima) (E-score (dimensionless, -0.5 to 0.5)); Drosophila protein; higher = stronger relative binding preference, active = 0.31 or more).
T1 sequence: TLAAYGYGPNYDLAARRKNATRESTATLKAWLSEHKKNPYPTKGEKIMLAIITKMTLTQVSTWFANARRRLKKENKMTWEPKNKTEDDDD
In short: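 Caup's homeodomain DNA-binding domain (residues 214-303) was produced by in vitro transcription and translation and applied at 100 nM to custom-designed protein binding microarrays. Each value is an enrichment score giving relative binding preference for a short DNA word; higher means stronger. Published 9-mer scores were the minimum of their two constituent 8-mer scores, and the 8-mer values were recovered from those minima. A cutoff of 0.31 marks candidate binding sequences.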

Row | Sequence | PBM E-score
1 | TGTGTGAA | inactive: 0.14
2 | AGGTGGCG | inactive: -0.0903
3 | ACCTTGGG | inactive: -0.106
4 | AGCAATAC | inactive: 0.0839
5 | ACTTTCCG | inactive: -0.0376
6 | CGTGAGCC | inactive: -0.163
7 | CAGTTCGG | inactive: -0.0674
8 | ATGTGTCG | inactive: 0.262
9 | CACCTCTC | inactive: -0.147
10 | CTAAGATA | inactive: 0.0774
11 | AGTTTATG | inactive: 0.0709
12 | TCATGAAA | inactive: -0.0194
13 | GAGCCGGC | inactive: -0.252
14 | AAAGTTCC | inactive: -0.0598
15 | CACAAATC | inactive: 0.0529
16 | CATTGGTC | inactive: -0.0725
17 | GGGGTGGA | inactive: -0.141
18 | AACGAAAG | inactive: -0.0333
19 | GTTTTCGA | inactive: 0.00741
20 | AGTAGATC | inactive: 0.0726
21 | CTGAGTGA | inactive: 0.0591
22 | AAGTCCCA | inactive: -0.0878
23 | AATATTCA | inactive: 0.152
24 | CAACAGTA | inactive: 0.0987

Row | Sequence | PBM E-score
25 | CGGGACCA | inactive: -0.151
26 | AATTTCAT | inactive: 0.133
27 | CACTGCTG | inactive: -0.106
28 | CATTTGAG | inactive: 0.0594
29 | ATTCCCCG | inactive: -0.0419
30 | GCTGTCGA | inactive: 0.0469
31 | CCCTATCC | inactive: -0.157
32 | CACTTACA | inactive: 0.243
33 | AAAGAAAT | inactive: 0.0689
34 | GGGGCTCA | inactive: -0.244
35 | AAAAAGCG | inactive: -0.101
36 | ACCGACAA | inactive: 0.13
37 | GTAAGGTA | ≥ 0.165
38 | ATTCTACG | inactive: 0.0692
39 | GCGCCGCC | inactive: -0.263
40 | GTGTACTA | active: 0.34
41 | GTCGGAAA | inactive: 0.0805
42 | AATACGGG | inactive: -0.045
43 | CGCCCGTC | inactive: -0.241
44 | AAGACCTA | inactive: -0.037
45 | ACAGCGCC | inactive: -0.0581
46 | CTCGGGTA | inactive: 0.0492
47 | ACAGGTCA | inactive: 0.136
48 | ACCTTCTG | inactive: 0.0175

Row | Sequence | PBM E-score
49 | ATGAGCCG | inactive: -0.122
50 | AGAGTATA | inactive: 0.0771
51 | GAGTTCCC | inactive: -0.1
52 | AAACCCCC | inactive: -0.234
53 | CTATCTCA | inactive: -0.0226
54 | AGACTTTC | inactive: 0.013
55 | ACATAATC | inactive: 0.202
56 | CAAGCTTG | inactive: -0.0318
57 | ATGCCCTG | inactive: -0.0861
58 | CAGTTCTC | inactive: -0.0392
59 | GATGCGTA | inactive: -0.00072
60 | AGAGGAAT | inactive: -0.0742
61 | GTAGACAA | active: 0.313
62 | GCGTATAA | inactive: -0.0488
63 | CATATTCG | inactive: 0.0718
64 | TGAACCAA | inactive: 0.0932
65 | AAATCAAA | inactive: 0.11
66 | ATCGCTAC | inactive: 0.0384
67 | AGTTACCG | inactive: 0.0818
68 | ACGGTATG | inactive: 0.0358
69 | AGTTTGTC | inactive: 0.073
70 | CGCGCTCC | inactive: -0.156
71 | GAGTGCTA | inactive: 0.0592
72 | AACTCCGG | inactive: -0.121

Row | Sequence | PBM E-score
73 | ATCTATAG | inactive: 0.0725
74 | ACATCAAG | inactive: 0.227
75 | CTGATCCA | ≥ 0.0971
76 | GCTATTCC | inactive: -0.026
77 | CGTCCTTA | inactive: -0.0328
78 | GCGGGTCC | inactive: -0.275
79 | GCCCCACA | inactive: -0.178
80 | AAAGAGCG | inactive: -0.0636
81 | AACAAGCC | inactive: 0.176
82 | GAATTGAC | inactive: 0.0767
83 | CCAGGGCG | inactive: -0.254
84 | ATGCCTTG | inactive: 0.0116
85 | CTCCACGA | inactive: -0.149
86 | ACATCTGG | inactive: 0.119
87 | GAAGGAGC | inactive: -0.236
88 | CTGGCTCA | inactive: -0.111
89 | CGTGGGAC | inactive: -0.109
90 | TCGAACAA | inactive: 0.259
91 | AATATAGG | inactive: 0.0868
92 | CTTGTGTA | active: ≥ 0.341
93 | CCGAAAGA | inactive: -0.0463
94 | CGCATCGC | inactive: -0.22
95 | CCCTTCTC | inactive: -0.19
96 | GAATCTCC | inactive: -0.0908

Row | Sequence | PBM E-score
97 | ACCTCCTC | inactive: -0.067
98 | CCGTTCAC | inactive: -0.0842
99 | GAAGGTCA | inactive: -0.0224
100 | CCTACGAA | inactive: -0.0261
101 | CACCGGTG | inactive: -0.117
102 | CGACGGAG | inactive: -0.157
103 | ATTGATGG | inactive: 0.0561
104 | ATCGTCGC | ≥ 0.0107
105 | CAGCGCGG | inactive: -0.0615
106 | CTAGTAAC | inactive: 0.149
107 | GACAATAA | inactive: 0.14
108 | CGACACTC | inactive: 0.0187
109 | ATCCTCCG | inactive: -0.0647
110 | GCGCTCCA | inactive: -0.217
111 | CCTACTCC | inactive: -0.0436
112 | GACCCGCA | inactive: -0.135
113 | GAGGGGAA | inactive: -0.104
114 | CGATTCTC | inactive: -0.0766
115 | ACGTACTA | ≥ 0.193
116 | GGCCCACC | inactive: -0.32
117 | AGACCCCT | inactive: -0.143
118 | ATCAATGA | ≥ 0.193
119 | ATTAAACC | inactive: 0.103
120 | ATTCTTGG | inactive: -0.0305

Row | Sequence | PBM E-score
121 | GGACTTGA | inactive: -0.0246
122 | CGGACGAA | inactive: -0.034
123 | ACGGGCCC | inactive: -0.295
124 | CACGCAGG | inactive: -0.0018
125 | AAGACATC | inactive: 0.159
126 | CGACAGCC | inactive: 0.0551
127 | GTTAATGA | inactive: 0.153
128 | ATCGGCAT | inactive: -0.0158
129 | CACTCTTC | inactive: 0.0141
130 | CCATAGCC | inactive: -0.129
131 | CAGCCCCG | inactive: -0.153
132 | CCGGCCGA | inactive: -0.281
133 | TAGCGTCA | ≥ 0.0181
134 | CATGTTAC | active: 0.42
135 | GTAGCAAA | inactive: 0.0804
136 | CAGTTGCA | inactive: 0.0245
137 | AAGCTAGA | inactive: -0.0459
138 | CGCACCTC | inactive: -0.169
139 | GGAAGATA | inactive: 0.0393
140 | ACCCTCAC | inactive: -0.101
141 | AAACCAGG | inactive: 0.0544
142 | GATTTCCA | inactive: -0.0029
143 | ATAGCTGA | inactive: 0.00141
